Laboratory results published in PubChem BioAssay AID1457 (National Center for Advancing Translational Sciences (NCATS), 2008).
Out of some 210,000 compounds screened, about 730 (0.35%) were called active. Inconclusive means that the source gave no clear call. Such entries were picked first, then a sample of the others. The call rests on the fitted dose curve; in most records, active means well fitted inhibition curve with a large enough effect; inconclusive means small, poorly fitted or top-dose-only effect; inactive means no such curve, though single readings can be large or run the other way. Potencies of inconclusive entries are doubtful fits and often do not repeat.

Assay: qHTS Assay for Identifying the Cell-Membrane Permeable IMPase Inhibitors: Potentiation with Lithium; further: nearly all actives have a fitted effect of over 50% in size
Conditions: CHO-M1 cells, IP1 TR-FRET (IP-One), carbachol + lithium; series mostly up to 59.4 µM
Outline: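 CHO-M1, 2000 cells/well, 16–30 h culture; cpd + low Li+, 30 min 37C; lysis with d2-IP1/Eu-anti-IP1 Ab, 10 min RT; TR-FRET 665/620 ratio and 620 channel; AC50 via Hill.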
Potency means the concentration at half of the fitted maximal effect.

Structure (SMILES)	Potency
Cc1nc(N2CCOCC2)c2c(C)c(C(=O)Nc3ccc(F)cc3Cl)sc2n1	inconclusive: 28.2 µM [inhibitor, single point]
CN(C)c1ccnc(Oc2ccccc2)c1C#N	inconclusive: 28.2 µM [inhibitor, single point]
COc1ccc2nc(NC(=O)c3cccc(OCc4c(C)noc4C)c3)sc2c1	inconclusive: 28.2 µM [inhibitor, single point]
CCCCNC(=O)C(=O)N/N=C/c1ccc(OCC(=O)Nc2cccc(OC)c2)c(OC)c1	inactive
Cc1cc(C#N)c(SCC(N)=O)nc1-c1ccc(F)cc1	inconclusive: 12.6 µM [inhibitor, single point]
O=C(Nc1cccc(Cl)c1Cl)c1ccc(-c2ccccc2)cc1	inconclusive: 11.2 µM [inhibitor, partial curve]
COc1ccc(-n2c(=S)[nH]c3c(oc4ccccc43)c2=O)cc1	active: 6.31 µM
Cc1ccc(Cl)cc1Nc1nc(-c2sc(NC(=O)c3ccccc3)nc2C)cs1	inactive
Cc1cc(C)c2nc(-c3ccccn3)cc(C(=O)NCc3cc(C)n(C)n3)c2c1	inconclusive: 28.2 µM [inhibitor, single point]
COC(=O)c1ccc(C23CC4(C2)[C@H](CN(Cc2cccnc2)[C@@H]4c2ccccc2)C3c2ccc(C(F)(F)F)cc2)cc1 (some centres undefined)	inactive
CC(=O)c1ccc(N2CCN(c3ccc(S(=O)(=O)N4CCN(C)CC4)cn3)CC2)cc1	inconclusive: 10 µM [inhibitor, partial curve]
COc1cc2c(-c3ccccc3O)nc3c(c(C)nn3-c3ccccc3)c2cc1OC	inconclusive: 28.2 µM [inhibitor, single point]
CCOc1ccc(N2C(=O)CN(O)C=C3N=c4ccccc4=C32)cc1	inconclusive: 2.51 µM [inhibitor, full curve, poor fit]
CCc1cc2c3c(c(=O)oc2cc1O)CCCC3	inconclusive: 12.6 µM [inhibitor, single point]
CC(=O)NC1C(=O)N(CC(C)C)c2ccccc21 (centres undefined)	inactive
Cc1ccc(-c2nc3cccnc3o2)cc1NC(=O)COc1ccc(Cl)cc1C	active: 6.31 µM
CC(=O)c1nc(N2C(=O)CC(Cc3ccccc3)C2=O)sc1C (centres undefined)	inconclusive: 28.2 µM [inhibitor, single point]
Cc1ccc(-c2nc3ccccc3s2)cc1NC(=O)c1ccc2c(c1)OCO2	active: 11.2 µM
COc1ccc(OC)c(C2=NOC(C(=O)NCc3ccco3)C2)c1 (centres undefined)	inconclusive: 11.2 µM [inhibitor, partial curve]
CN(C(=O)CO/N=C/c1ccc(OC(F)F)cc1)C1CCS(=O)(=O)C1 (centres undefined)	inactive
Cc1nc(SCC(=O)Nc2ccc(F)cc2)c2oc3ccccc3c2n1	inconclusive: 28.2 µM [inhibitor, single point]
CCOC(=O)c1cc2c3ccccc3n(CC)c2nc1N	inconclusive: 28.2 µM [inhibitor, single point]

Structure (SMILES)	Potency
O=C(COC(=O)c1ccc2ccccc2c1)Nc1ncc(C(F)(F)F)cc1Cl	inconclusive: 12.6 µM [inhibitor, single point]
COc1cc(C(=O)N=c2sc3ccccc3n2C)cc(OC)c1OC	inconclusive: 28.2 µM [inhibitor, single point]
CCC1CCCCN1C(=O)COc1c(Br)cc(Br)c2cccnc12 (centres undefined)	inconclusive: 14.1 µM [inhibitor, single point]
COc1ccc(C(=O)CSc2nnc(-c3cc(C)on3)o2)cc1	inconclusive: 22.4 µM [inhibitor, single point]
CCCn1c(=O)c(C(=O)NCc2ccccn2)c(O)c2ccccc21	inconclusive: 11.2 µM [inhibitor, single point]
Cn1ncc(Cl)c1C(=O)Nc1cc(C(F)(F)F)ccc1F	inconclusive: 22.4 µM [inhibitor, single point]
Cc1nn(-c2ccccc2)c2sc(-c3n[nH]c(=S)o3)cc12	inconclusive: 8.91 µM [inhibitor, partial curve]
Cn1cc(CNC(=O)c2cc(-c3ccc(Br)cc3)nc3ccccc23)cn1	inconclusive: 28.2 µM [inhibitor, single point]
CCN(CC)Cc1c(O)c(Cl)cc2c(C)cc(=O)oc12	inconclusive: 10 µM [inhibitor, partial curve]
COc1ccc(-n2nc3cc(C)c(NC(=S)NC(=O)c4ccccc4C)cc3n2)cc1	active: 12.6 µM
COc1ccc(NS(=O)(=O)c2cccs2)c(OC)c1	inconclusive: 2.82 µM [inhibitor, single point]
Cc1cc(-c2cccnc2)c(C#N)c(SCC#N)n1	inconclusive: 10 µM [inhibitor, single point]
COC(=O)c1ccc(NC(=O)CSc2nncc3ccc(OC)c(OC)c23)cc1	inconclusive: 11.2 µM [inhibitor, single point]
CC1Cc2ccccc2N1C(=S)NC(=O)C1(C)CC1(Cl)Cl (centres undefined)	inconclusive: 2.82 µM [inhibitor, single point]
O=C(O)c1ccc(Br)cn1	inactive
CCOCCNC(=O)c1ccc2c3c(cccc13)CC2	inconclusive: 6.31 µM [inhibitor, full curve, poor fit]
Cc1noc(C)c1CSc1ncnc2sc(C)c(C)c12	inactive
CCSc1cnn(-c2ccccc2)c(=O)c1SCC	active: 10 µM
COc1ccc(Cl)cc1C(=O)Nc1ccc(Br)c(C)n1	inconclusive: 22.4 µM [inhibitor, single point]
Cc1cc(=O)oc2cc(NC(=O)c3cc([N+](=O)[O-])ccc3N3CCOCC3)ccc12	inconclusive: 28.2 µM [inhibitor, single point]
Cc1cc2ccccc2n1CCNC(=O)c1ccccc1	inconclusive: 10 µM [inhibitor, partial curve]
CCc1ccc(-c2cc(C(=O)NCc3ccco3)c3ccccc3n2)s1	inconclusive: 17.8 µM [inhibitor, partial curve, poor fit]
